Assay results published in patent publication US20240376172A1 (ILTOO PHARMA, published 2024).

Molecular target: T1, IL-2 receptor on human whole-blood cells (regulatory T cells) (human, UniProt P01589 22-272; P14784 27-551; P31785 23-369)
T1 sequence (looked up) 1: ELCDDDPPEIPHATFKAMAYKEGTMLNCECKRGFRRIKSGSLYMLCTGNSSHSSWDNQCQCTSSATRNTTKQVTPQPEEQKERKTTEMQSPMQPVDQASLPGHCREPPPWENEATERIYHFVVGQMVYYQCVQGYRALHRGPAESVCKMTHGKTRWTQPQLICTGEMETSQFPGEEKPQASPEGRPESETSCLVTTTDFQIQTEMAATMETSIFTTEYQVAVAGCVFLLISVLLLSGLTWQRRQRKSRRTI
T1 sequence (looked up) 2: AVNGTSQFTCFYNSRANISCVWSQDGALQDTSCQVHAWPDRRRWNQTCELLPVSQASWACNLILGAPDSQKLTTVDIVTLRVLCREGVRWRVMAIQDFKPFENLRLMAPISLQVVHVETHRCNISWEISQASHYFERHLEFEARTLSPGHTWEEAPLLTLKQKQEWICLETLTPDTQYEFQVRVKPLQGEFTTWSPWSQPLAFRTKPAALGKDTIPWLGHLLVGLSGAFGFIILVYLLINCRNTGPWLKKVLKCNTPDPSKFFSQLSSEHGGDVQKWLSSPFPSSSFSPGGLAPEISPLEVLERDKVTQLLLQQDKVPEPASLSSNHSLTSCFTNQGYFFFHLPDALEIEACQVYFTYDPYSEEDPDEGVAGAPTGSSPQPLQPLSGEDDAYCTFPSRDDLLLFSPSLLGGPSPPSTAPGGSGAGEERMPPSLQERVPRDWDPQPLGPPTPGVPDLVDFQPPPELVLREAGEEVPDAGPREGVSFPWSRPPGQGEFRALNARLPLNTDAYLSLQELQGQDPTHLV
T1 sequence (looked up) 3: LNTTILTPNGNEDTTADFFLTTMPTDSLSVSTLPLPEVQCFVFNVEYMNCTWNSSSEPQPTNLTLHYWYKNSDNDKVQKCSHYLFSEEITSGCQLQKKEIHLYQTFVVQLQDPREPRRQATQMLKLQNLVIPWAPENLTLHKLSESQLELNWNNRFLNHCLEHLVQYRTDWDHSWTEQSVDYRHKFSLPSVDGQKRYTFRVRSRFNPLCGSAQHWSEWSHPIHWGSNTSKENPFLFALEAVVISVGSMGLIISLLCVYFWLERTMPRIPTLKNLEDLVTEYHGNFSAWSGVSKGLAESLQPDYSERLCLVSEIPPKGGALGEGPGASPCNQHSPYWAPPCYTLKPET
Test: cell-based or functional assay

B1: IL-2N88R-C4bpß-scFvE06 targeted fusion protein (mutated IL-2 N88R fused to the N-terminus of C4BPß, C4BPß fused to scFvE06, with HIS tag) (other, not shown: small tags and cut ends)
chain: [about 150 residues with changes not written out]GGGGSGGGGSGGGGSIQEAPKPECEKALLAFQESKNLCEAMENFMQQLKESGMTMEELKYSLELKKAELKAKLLGGGGSGGGGSGGGGSDIVMTQSPSSLSVSAGKKVTISCTASESLYSSKHKVHYLAWYQKKPEQSPKLLIYGASNRYIGVPDRFTGSGSGTDFTLTISSVQVEDLTHYYCAQFYSYPLTFGAGTKLEIKGGGGSGGGGSGGGGSEVKLVESGGGLVQPGGSLRLSCATSGFTFSDFYMEWVRQAPGKRLEWIAASRNKANDYTTEYADSVKGRFIVSRDTSQSILYLQMNALRAEDTAIYYCARDYYGSSYWYFDVWGAGTTVTVSS
  pSTAT5 EC50 on regulatory T cells, human whole blood, flow cytometry: ~650 ng/mL
